# PubChem BioAssay AID1347417 (National Center for Advancing Translational Sciences (NCATS), 2020)
# Among all 120,000 compounds or so, about 5,300 (4.4%) were called active. The inconclusive results got no clear call from the source; some entries with a clear call stand among them for comparison. Calls follow the shape of the dose curve; as a rule, active = well fitted inhibition curve with a large enough effect; inconclusive = small, poorly fitted or top-dose-only effect; inactive = no such curve, though single readings can be large or run the other way. Potencies of inconclusive entries are doubtful fits and often do not repeat.
# Assay: qHTS Primary assay for Inhibitors of Plasmodium falciparum Dd2 growth in vitro; also: nearly all actives have a fitted effect of over 65% in size;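 as to activity, negative = inhibition: plate controls were DMSO vehicle for no effect and reference drug for full effect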
# Conditions: P. falciparum Dd2 growth, SYBR Green, 72 h; activity, negative = inhibition: at 28.9 µM (top of the series) unless noted; series mostly up to 28.9 µM
# Method in brief: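 Infected erythrocytes (Dd2, 0.3% parasitemia, 2.5% hematocrit final) are added to compound in RPMI-1640/Albumax II medium, grown 72 h at 37C in low oxygen, then lysed with saponin/Triton-X containing SYBR Green and read by fluorescence.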
# Potency is read from the fitted curve at half-maximal effect; tags tell the direction and shape of the fitted curve.
SMILES,Potency,"activity, negative = inhibition"
Cc1cccc(-c2cc(C(=O)O)c3c(-c4ccc(F)cc4)[nH]nc3n2)c1,active: 7.94 µM,
COCc1ccc2c(c1)c(OC(C)(C)C(=O)NC1CCC(O)CC1)nn2Cc1ccccc1 (stereo unspecified),inactive,
Cc1nc(-c2c3n(c(=O)n(Cc4cc(F)ccc4F)c2=O)CCCCC3)no1,inactive,
CCOc1ccccc1NC(=O)c1cn(C2CCCCC2)c(=O)c2c1c1ccccc1n2C,"inconclusive: 20 µM [inhibitor, single point]",
CCc1nnsc1C(=O)NC(C)c1cnn(-c2ccccc2C)c1C (stereo unspecified),inactive,
COc1ccc(CCNC(=O)CCn2c(=O)c3cccn3c3ccc(F)cc32)cc1OC,inactive,
Cc1ccc(-c2cn3c(n2)sc2cc(C(=O)NC4CCCCC4)ccc23)cc1,"inconclusive: 10 µM [inhibitor, partial curve, poor fit]",
CN(C)C(C(=O)N(Cc1cccc(O)c1)C1CC1)c1ccccc1F (stereo unspecified),"inconclusive: 2.24 µM [inhibitor, single point]",
Cc1nc(CC(=O)N2CC[C@@H](NC(=O)c3cnccn3)[C@H](O)C2)cs1,inactive,
Cc1cccc(NC(=O)c2ccc(F)c(S(=O)(=O)N3CCN(c4ccc(F)cc4)CC3)c2)c1,"inconclusive: 17.8 µM [inhibitor, single point]",
Cc1ccc(-c2nnc(C3CN(C(=O)c4ccc(C)c(F)c4)CC34CCOCC4)o2)cc1 (stereo unspecified),"inconclusive: 17.8 µM [inhibitor, single point]",
CCOc1ccc(C2CC(=O)c3c([nH]c(C(=O)OC4CCCCCC4)c3C)C2)cc1 (stereo unspecified),,inconclusive: -117% [inhibitor] [at 5.79 µM]
Cc1ccc(CN2CCc3nc(C(=O)Nc4cccnc4)oc3CC2)cc1,"inconclusive: 1.26 µM [inhibitor, full curve, poor fit]",
CC1=C(C(=O)OC2CCCCCC2)C(c2c(Cl)cccc2Cl)CC(=O)N1 (stereo unspecified),"inconclusive: 17.8 µM [inhibitor, partial curve, poor fit]",
COc1ccc(CCNC(=O)c2cc(-c3ccc(C)c(C)c3)nc3ccccc23)cc1OC,"inconclusive: 10 µM [inhibitor, partial curve, poor fit]",
O=C(NCc1nnc2c(-c3nc(C4CC4)no3)cccn12)c1cc(F)ccc1Cl,"inconclusive: 2.24 µM [inhibitor, partial curve, poor fit]",
CCCn1c2ccc(C)cc2c2nnc(SCCN3CCCCC3)nc21,active: 8.91 µM,
Cc1c(-c2ccc(F)cc2)[nH]c2ccc(CNC(=O)CCN3CCCO3)cc12,"inconclusive: 20 µM [inhibitor, single point]",
Cc1ccc(S(=O)(=O)Nc2nc3n(n2)C(c2ccc(Cl)cc2)C=C(c2ccccc2)N3)cc1 (stereo unspecified),"inconclusive: 10 µM [inhibitor, single point]",
c1cc(CN2CCc3c(sc4ncnc(N5CCOCC5)c34)C2)ccn1,"inconclusive: 3.98 µM [inhibitor, single point]",
Cc1noc(CN(C)C(=O)c2ccc(S(=O)(=O)NCCO)cc2)n1,inactive,

SMILES,Potency,"activity, negative = inhibition"
O=C(c1ccco1)N1CCC(n2cc(-c3nc(-c4ccccc4)no3)nn2)C1 (stereo unspecified),"inconclusive: 3.98 µM [inhibitor, single point]",
Cc1ccc(C)c(N2CCN(CCCNC(=O)c3ccc4nc(C(C)C)oc4c3)CC2)c1,"inconclusive: 5.62 µM [inhibitor, partial curve]",
COc1ccc(NC(=O)CC2=C3CCCCC3NC2=O)cn1 (stereo unspecified),inactive,
CCS(=O)(=O)Nc1ccc(C2(C(=O)NCc3cccc(F)c3)CCCCC2)cc1,"inconclusive: 12.6 µM [inhibitor, partial curve, poor fit]",
COCCN1C(=O)CS(=O)C12CCN(C(=O)C1(c3ccc(OC)cc3)CC1)CC2 (stereo unspecified),"inconclusive: 20 µM [inhibitor, single point]",
O=C(CCC[C@H]1NC[C@@H]2C[C@H]1CN(Cc1ccccc1)C2)N1CCN(c2ncccn2)CC1,"inconclusive: 17.8 µM [inhibitor, single point]",
Cc1cccc(NC(c2nnc(-c3ccccc3)o2)c2ccc(F)cc2Cl)c1C (stereo unspecified),"inconclusive: 7.94 µM [inhibitor, partial curve, poor fit]",
COCCOc1ccc2c(n1)CCN(C(=O)COc1ccccc1)C2,"inconclusive: 7.08 µM [inhibitor, single point]",
c1ccc(CN2CC[C@H](c3nnc(-c4ccncc4)o3)C2)cc1,inactive,
Cc1ccc(C(=O)N2CCC3(CCCN(Cc4cccc(F)c4F)C3)C2)s1 (stereo unspecified),"inconclusive: 17.8 µM [inhibitor, single point]",
N#Cc1cccc(CN2Cc3[nH]cnc3C[C@H]2c2nc(-c3ccc(OC(F)(F)F)cc3)no2)c1,"inconclusive: 10 µM [inhibitor, partial curve]",
COCC(=O)N[C@H]1CCN2C(=O)c3cc(-c4cccc(C)c4C)ccc3NC(=O)[C@@H]2C1,"inconclusive: 6.31 µM [inhibitor, full curve, poor fit]",
COc1ccc(OC)c(NC(=O)c2cc(-c3ccc[nH]3)n[nH]2)c1,inactive,
CCOCCc1nn2c(=O)cc(COC(=O)c3ccc4c(c3)OCO4)nc2s1,"inconclusive: 17.8 µM [inhibitor, single point]",
O=C(Nc1ccccc1)c1cc2n(n1)CC(c1ccc(Br)cc1)OC2 (stereo unspecified),inactive,
Cc1cccc(O[C@H]2COCCN(Cc3ccccn3)C2)n1,"inconclusive: 11.2 µM [inhibitor, single point]",
Cc1cccc(O[C@H]2COCCN(Cc3cnn(C)c3)C2)n1,inactive,
CN1C[C@@H](NC(=O)c2ccc(F)cc2)C[C@H]1c1nc(-c2ccccc2)no1,active: 11.2 µM,
Cn1c(-c2cn(C3CCNCC3)nn2)nc2ccccc21,"inconclusive: 10 µM [inhibitor, single point]",
COC(=O)c1ccc(CN2C(=O)[C@@H]3C[C@@H](O)CN3C3(CN(Cc4ccccc4F)C3)C2=O)cc1,"inconclusive: 8.91 µM [inhibitor, partial curve, poor fit]",
